{
  "source": "the supplement of paper PMC11417369",
  "note": "The other results are listed elsewhere or left out.",
  "data": [
    {"tested_on": "PfSIP2 AP2 domain 1 (GST-tagged)", "test": "gcPBM binding intensity (ln(normalized median fluorescence intensity)); higher = stronger DNA binding", "method_in_brief": "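The highest Masliner-normalised natural-log median intensity across replicate spots of either probe orientation is reported as binding intensity. GST-tagged P. falciparum DNA-binding domains expressed in E. coli were applied for 1 h to an Agilent 4 × 180k array of primer-extended double-stranded 36-bp intergenic genomic probes plus negative controls, and bound protein was detected with Alexa488 anti-GST antibody and scanned at 488 nm.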", "values": [
      {"sequence": "TTAATATTAAAATATAAACACACAAAATTCAATTAT [CACACA_site9262]", "gcPBM binding intensity (ln)": 6.94},
      {"sequence": "AGTAAATATATTATATGTACGTATCATAAAATATAT [XGTACX_site1567]", "gcPBM binding intensity (ln)": 7.18},
      {"sequence": "ATTTTTTTTTTTTTTTTTAATTTATGTTGTTATTTT [CACACA_negctrl_site944]", "gcPBM binding intensity (ln)": 6.74},
      {"sequence": "GTAAAATAAATAATATAAATAAAATGAAATGAAACA [TGCATGCA_negctrl_site519]", "gcPBM binding intensity (ln)": 6.93},
      {"sequence": "AAGTTTAAAGGAATTACACAAACAAGCAAATATATA [CACACA_negctrl_site857]", "gcPBM binding intensity (ln)": 6.98},
      {"sequence": "ATTATATAATAATAAAGTACTAATATTTTTAAAAGA [XGTACX_site235]", "gcPBM binding intensity (ln)": 6.94},
      {"sequence": "ATATATATATATATAGTGCAAATAAAAAATAGACAA [GTGCAC_site9796]", "gcPBM binding intensity (ln)": 9.46},
      {"sequence": "TAATATATTAAAAGAAGTACATTTCTGATTTAATAG [XGTACX_site6403]", "gcPBM binding intensity (ln)": 6.99},
      {"sequence": "GAACCGTTTTTATGTAGTACATATGTATATATATAT [XGTACX_site1577]", "gcPBM binding intensity (ln)": 9.06},
      {"sequence": "TTATTTATATATTGCCCACACACATGTGATTATTTA [CACACA_site1715]", "gcPBM binding intensity (ln)": 6.92},
      {"sequence": "AATATTTTTTGTTTTACACACATATATAAATATATA [CACACA_site3602]", "gcPBM binding intensity (ln)": 7.03},
      {"sequence": "GAATTATATACTTATTGTACAAAAAAAAAAAAAAAA [XGTACX_site3193]", "gcPBM binding intensity (ln)": 7.09},
      {"sequence": "TATTCCCCCCAACACACACACACACCGACATACCAC [CACACA_site8723]", "gcPBM binding intensity (ln)": 8.96},
      {"sequence": "ATAAACATGTATATATTAAAAAAAAAAAAAAAAAAT [CACACA_negctrl_site92]", "gcPBM binding intensity (ln)": 6.83},
      {"sequence": "GCAAGGTCCACACTGGTGCATTAAAAATAAAATATA [GTGCAC_site9956]", "gcPBM binding intensity (ln)": 10.4},
      {"sequence": "TTTTTTAAATATATATGTACATATATCTATATATAT [XGTACX_site3461]", "gcPBM binding intensity (ln)": 7.73},
      {"sequence": "TTTATAATTTATAGGCGGACAGGAAAATTTTATAAA [XGTACX_site6955]", "gcPBM binding intensity (ln)": 7.16},
      {"sequence": "TTTTTAATTTTTTTCACACATATATAAATACAAATA [CACACA_site5530]", "gcPBM binding intensity (ln)": 7.13},
      {"sequence": "AAATTACAAATAAAATGTACTCATGTTTTTATTATA [XGTACX_site7223]", "gcPBM binding intensity (ln)": 6.9},
      {"sequence": "TGAACAGGTCATAATTTACACACTATATATTTTATT [CACACA_site8123]", "gcPBM binding intensity (ln)": 6.87},
      {"sequence": "TACAGGAATATTTTTACACACTAAAAGTTATAAACT [CACACA_site6876]", "gcPBM binding intensity (ln)": 6.72},
      {"sequence": "TTTTTCTTTTTTTGTTGTACATTTTGTAATATTTAC [XGTACX_site4102]", "gcPBM binding intensity (ln)": 7.16},
      {"sequence": "TATAATATATATGTATGTACGTATGTATGATTTTGT [XGTACX_site1164]", "gcPBM binding intensity (ln)": 7.39},
      {"sequence": "AAGAAAAATTCTTCACGTACAAATAATTATATATAT [XGTACX_site7217]", "gcPBM binding intensity (ln)": 7.34},
      {"sequence": "TTTTACTATGATATTTATATATCTATATATGTATAT [XGTACX_negctrl_site499]", "gcPBM binding intensity (ln)": 6.87},
      {"sequence": "AAAAATAAAAATGAGTGTACTTTAAGCCCTACACTT [XGTACX_site828]", "gcPBM binding intensity (ln)": 6.91},
      {"sequence": "TATAATATTATAGTTTGTACGAAAATAATATATTTA [XGTACX_site8673]", "gcPBM binding intensity (ln)": 7.14},
      {"sequence": "ACGATGTTCATCACTACACACACAAAGAAATATATA [CACACA_site8859]", "gcPBM binding intensity (ln)": 6.93},
      {"sequence": "AACCAAAATTTTTGTCGTACAAAAGAGCAAATGTAG [XGTACX_site6472]", "gcPBM binding intensity (ln)": 7.41},
      {"sequence": "TGATTATAGACACGCGCACACACAACAAAAAAAAAA [CACACA_site9179]", "gcPBM binding intensity (ln)": 7.34},
      {"sequence": "TAAGTTTGTGCAAGTGGTACATATATATAAATTTAT [XGTACX_site5944]", "gcPBM binding intensity (ln)": 7.29},
      {"sequence": "TTTACATAAACTGGTAGTACATAATATGGCTTAAAA [XGTACX_site5002]", "gcPBM binding intensity (ln)": 7.24},
      {"sequence": "TTAGCAACTATTACTACACACATTTGTATTTAATTT [CACACA_site4961]", "gcPBM binding intensity (ln)": 6.86},
      {"sequence": "TGGATTTTTTGATTTTTGTTTTTCTTCTTTCCCCCC [CACACA_negctrl_site1471]", "gcPBM binding intensity (ln)": 8.56},
      {"sequence": "ACAGTATAAAAATAAGCACACACACTAATATATATT [CACACA_site8212]", "gcPBM binding intensity (ln)": 7.07},
      {"sequence": "TAAAATATATTTTTCTGTACACAAAAATATATTAAA [XGTACX_site2813]", "gcPBM binding intensity (ln)": 7.11},
      {"sequence": "TATATATTAATATATGCATGTTAATATATTATGAAA [TGCATGCA_site61]", "gcPBM binding intensity (ln)": 6.9},
      {"sequence": "AATGTAAAACGAAATGCACACTATGGAAAATATAAA [CACACA_site4559]", "gcPBM binding intensity (ln)": 7.96},
      {"sequence": "TAATAATAATTAAAATGAGATAAATAAATATATATA [TGCATGCA_negctrl_site322]", "gcPBM binding intensity (ln)": 7.38},
      {"sequence": "TCTTTATATCATCTTTCTAAATATATATATATATAA [CACACA_negctrl_site77]", "gcPBM binding intensity (ln)": 7.29},
      {"sequence": "TTATATATTTATAAATGTACGTATAAGAATTTAATT [XGTACX_site8541]", "gcPBM binding intensity (ln)": 7.24},
      {"sequence": "CTATTAATGTACTCTACACACATATAAGAGGACATT [CACACA_site471]", "gcPBM binding intensity (ln)": 7.21},
      {"sequence": "TACATATTTGTATATGCACACATAAATTTTTCCATT [CACACA_site9148]", "gcPBM binding intensity (ln)": 7.51},
      {"sequence": "AAATATTTATACCACACACACATACCTCTATTTGTA [CACACA_site6957]", "gcPBM binding intensity (ln)": 7.06},
      {"sequence": "TTTTTTTTTTTTTAATGTACCCATGGGCACATAGGT [XGTACX_site486]", "gcPBM binding intensity (ln)": 7.31},
      {"sequence": "TAAATATAGGGTAATAGTACATAATTATATTCTTTT [XGTACX_site3883]", "gcPBM binding intensity (ln)": 6.76},
      {"sequence": "TATATTTATATATTAGTGCACTTTTTGTTAATTTTT", "gcPBM binding intensity (ln)": 10.7},
      {"sequence": "AATGGATTAGCTAGCACACACAAAAAAAAAAAAAAA [CACACA_site3031]", "gcPBM binding intensity (ln)": 7.03},
      {"sequence": "CAAAATTTATATAATAGTACACATGATCTTTTTTCT [XGTACX_site8956]", "gcPBM binding intensity (ln)": 6.81},
      {"sequence": "TATATATATATATAATGTACGAATAGAAAAAAAAAA [XGTACX_site7231]", "gcPBM binding intensity (ln)": 9.04},
      {"sequence": "GATACAAAATGGGGAACACACACATATATATATATA [CACACA_site9278]", "gcPBM binding intensity (ln)": 9.26},
      {"sequence": "TATATATATATATATATATATATTAATATATATTAC [XGTACX_negctrl_site103]", "gcPBM binding intensity (ln)": 9.16},
      {"sequence": "TAAAGGCAAACAAACACACACACATATATACCTATA [CACACA_site7078]", "gcPBM binding intensity (ln)": 7.06},
      {"sequence": "ATAACAAAATAAAACACACACACAAATGTACCTATA [CACACA_site7190]", "gcPBM binding intensity (ln)": 7.04},
      {"sequence": "TATTTATAAATATAAACACACAACATTATATGCATA [CACACA_site5748]", "gcPBM binding intensity (ln)": 7.02},
      {"sequence": "AAAAGTGTATGTAGGTGTACTTTTTATTTCTTCTTT [XGTACX_site8819]", "gcPBM binding intensity (ln)": 7.12}
    ]}
  ]
}
